# In all, about 310,000 compounds went through this assay and about 14,000 (4.5%) showed an effect of 50% or more. The effect is printed as a negative number. The list shows a part of the results. Where a SMILES comes first, the peptide text is derived from it. The star is where a group is joined. Boc = CC(C)(C)OC(=O)*
# Biological target: human ether-à-go-go-related gene (hERG) potassium channel (human, UniProt Q12809)
# Assay: primary screen, population patch clamp on CHO cells stably expressing hERG
# 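Further: peak tail current of the secondary pulse compared with the same well before compound.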
# Chain of human ether-à-go-go-related gene (hERG) potassium channel (Q12809 whole entry, looked up): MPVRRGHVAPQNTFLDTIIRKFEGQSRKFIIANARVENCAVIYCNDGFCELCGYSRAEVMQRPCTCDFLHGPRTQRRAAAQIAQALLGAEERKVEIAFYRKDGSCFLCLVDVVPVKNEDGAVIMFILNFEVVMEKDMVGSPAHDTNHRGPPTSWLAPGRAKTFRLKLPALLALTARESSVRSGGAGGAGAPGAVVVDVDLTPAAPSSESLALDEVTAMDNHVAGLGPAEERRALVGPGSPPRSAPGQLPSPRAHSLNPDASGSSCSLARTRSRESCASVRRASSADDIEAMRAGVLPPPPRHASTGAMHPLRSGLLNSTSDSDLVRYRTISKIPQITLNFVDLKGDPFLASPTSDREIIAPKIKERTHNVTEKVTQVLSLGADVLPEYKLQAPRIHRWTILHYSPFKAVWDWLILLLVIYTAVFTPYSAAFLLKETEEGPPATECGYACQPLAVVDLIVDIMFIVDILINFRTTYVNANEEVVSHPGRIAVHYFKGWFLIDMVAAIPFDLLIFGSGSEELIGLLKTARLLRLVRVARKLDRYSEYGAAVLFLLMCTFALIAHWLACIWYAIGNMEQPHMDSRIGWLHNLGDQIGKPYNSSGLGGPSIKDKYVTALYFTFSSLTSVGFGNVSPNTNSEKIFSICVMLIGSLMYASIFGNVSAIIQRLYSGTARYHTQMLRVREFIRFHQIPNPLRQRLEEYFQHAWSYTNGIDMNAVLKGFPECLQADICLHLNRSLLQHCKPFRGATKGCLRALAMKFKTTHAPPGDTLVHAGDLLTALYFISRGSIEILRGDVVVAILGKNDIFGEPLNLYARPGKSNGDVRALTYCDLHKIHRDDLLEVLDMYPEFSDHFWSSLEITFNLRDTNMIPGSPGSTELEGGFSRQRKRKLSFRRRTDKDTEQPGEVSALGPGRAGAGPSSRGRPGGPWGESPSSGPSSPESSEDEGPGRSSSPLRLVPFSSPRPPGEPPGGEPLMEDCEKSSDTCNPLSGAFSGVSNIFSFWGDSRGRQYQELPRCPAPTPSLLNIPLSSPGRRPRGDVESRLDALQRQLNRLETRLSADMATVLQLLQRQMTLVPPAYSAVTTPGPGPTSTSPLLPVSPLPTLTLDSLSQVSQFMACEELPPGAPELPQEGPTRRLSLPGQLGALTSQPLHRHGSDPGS
row,SMILES,"hERG current change (%, negative = inhibition) at 10uM"
1,CC1(C)CC(=O)C2=C(C1)NC(SCC(=O)Nc1ccccc1)=C(C#N)C21CCCCC1,-3.83%
2,CCN(CC(=O)Nc1c(F)cccc1F)C(=O)c1ccc(C2SCCS2)cc1,0.0972%
3,Cc1ccc(OCC(=O)n2cnnc2N)c(C)c1,17.3%
4,Cc1ccc(C(=O)NC(=S)NCCN2CCOCC2)cc1,23.3%
5,Cc1ccc(N(C(C)C(=O)Nc2cc(Cl)ccc2Oc2ccccc2)S(C)(=O)=O)cc1 (stereo not drawn),12.9%
6,Cn1c(=O)c2c(nc(CN3CCCCC3)n2Cc2c(F)cccc2Cl)n(C)c1=O,3.06%
7,COc1ccc(-c2cc(C(F)(F)F)c3c(N)c(C(=O)NCCSC)sc3n2)cc1,-10.7%
8,CCOc1ccccc1NC(=O)C(=O)CC(=O)c1ccc(OC)cc1,6.53%
9,O=C(Nc1ccc2c(c1)OCCO2)C1CC(O)CN1C(=O)Nc1ccccc1 (stereo not drawn),9.37%
10,CC(C)CCN(C)c1ccc(/C=N/n2cnnc2)cc1,-10.4%
11,CC1CCN(c2nc3ccccc3nc2N2CCC(C)CC2)CC1,2.06%
12,CCCCNC(=O)C1CCN(S(=O)(=O)c2c(C)noc2/C=C\c2ccc(OC)cc2)CC1,8.64%
13,CCOC(=O)c1c(NC(=O)c2c(C(=O)O)cccc2[N+](=O)[O-])sc(C)c1C,25.9%
14,Cc1cccc[n+]1CC(=O)Nc1ccccc1.[Cl-],6.56%
15,COC(=O)c1c(NC(=O)/C=C/C(=O)O)sc(Cc2ccccc2)c1C,-12.8%
16,N#CCSc1nnc(-c2ccc(F)cc2)n1N,13.2%
17,COc1cc(NS(=O)(=O)c2c(C)[nH]c(C)c2C(=O)N2CCCC2)cc(OC)c1OC,2.89%
18,COc1cc(-c2n[nH]c(=O)o2)cc(OC)c1OC,-20.7%
19,O=C(Nc1ccccc1F)c1ccc(COc2ccc(Cl)cc2Cl)o1,3.67%
20,CN(C)/C=N/c1cc(=O)[nH]c(=O)n1CC1CC1,23.5%
21,COC(=O)c1ccc(CNC(=O)CNC(=O)c2sc3ccccc3c2Cl)cc1,10.2%
22,CC(=O)Nc1nc2cc([N+](=O)[O-])ccc2s1,1.8%

row,SMILES,"hERG current change (%, negative = inhibition) at 10uM"
1,Cc1cc2c(cc1S(=O)(=O)NCCc1ccccc1)NC(=O)CO2,1.2%
2,COC(=O)c1c(NC(=O)CSc2nc3ccccc3c(=O)n2-c2ccccc2)sc(C)c1C,5.82%
3,COc1ccc(N2C(=O)C3CCCN3C2c2ccccc2OC)cc1 (stereo not drawn),24.5%
4,COCCN1Cc2cccc(C(=O)NCCc3ccccc3)c2C1=O,-6.1%
5,CCCC1=NN(C(=O)Cc2ccc(OC)cc2)C(O)(C(F)(F)F)C1 (stereo not drawn),-3.94%
6,Cc1cc(Oc2nc3c(C)cccn3c(=O)c2/C=C(\C#N)S(=O)(=O)c2ccccc2)ccc1Cl,3.51%
7,CC(C)CCN1CCN(C2CCN(c3ccccc3)CC2)CC1CCO (stereo not drawn),-60.9%
8,CCCCCN(C(=O)CCC(=O)OCCOc1cccc(C)c1)c1c(N)n(CCCC)c(=O)[nH]c1=O,-27.7%
9,COc1cccc(CN2CCNC(=O)C2CC(=O)NC2CCCCC2)c1OC (stereo not drawn),8.01%
10,CN(C)CCN(Cc1ccccc1)c1nccc(N(C)C)c1C#N.O.O=C(O)C(=O)O,-11.8%
11,CCCCn1c(N)c(N(CC(C)C)C(=O)C2CCN(S(=O)(=O)c3ccc(Cl)cc3)CC2)c(=O)[nH]c1=O,8.91%
12,COc1cc2cc(C(=O)N(C)C3CCS(=O)(=O)C3)[nH]c2cc1OC (stereo not drawn),14.4%
13,COc1ccc(C2=NNC(=Nc3cc(S(=O)(=O)N(C)C)ccc3C)SC2)c(OC)c1,2.69%
14,O=C(CSc1nc2ccccc2[nH]1)Nc1ccc(F)cc1,-12.6%
15,CCN(CC)CCCNC(=S)N(Cc1ccco1)Cc1cc2cc3c(cc2[nH]c1=O)OCCO3,-5.93%
16,Cc1csc(NC(=O)c2ccc(C)c(S(=O)(=O)N3CCCCC3)c2)n1,-14.3%
17,Cl.OC1(c2ccccc2)CCN(Cc2ccccc2)C2CCCCC21 (stereo not drawn),-15.6%
18,Cc1cc(NNC(=O)c2ccccc2)nc(NNC(=O)c2ccccc2)n1,15.8%
19,Cc1[nH]c(-c2ccc(F)cc2)cc1C(=O)N1CCN(c2cccc(Cl)c2)CC1,-12%
20,CC(C)C(=O)Nc1cc(C(F)(F)F)ccc1-n1ccnc1,3.41%
21,Cc1nonc1C(=O)N/N=C/c1cccc(O)c1,-5.79%
22,COc1cc(NC(=O)c2c(Cl)cnn2C)c(OC)cc1Cl,15.3%

row,SMILES,"hERG current change (%, negative = inhibition) at 10uM"
1,COC(=O)C1=C(c2c(C)noc2C)C[C@@H]2CC[C@H]1N2C(=O)NCc1ccco1,19%
2,Cc1cccc(C(=O)OC(C)C(=O)NCC2CCCCC2)c1O (stereo not drawn),1.32%
3,Cc1cccc(C)c1NC1=NCCCS1,-10.6%
4,Cc1ccccc1NC(=O)Cc1nnc(N)s1,11.3%
5,Cc1ccc(-c2nc3cnccn3c2Nc2ccc3c(c2)OCO3)cc1,-25.7%
6,COc1ccc(-c2nnn(CC(=O)NC(=O)NC3CCCCC3)n2)cc1OC,12.4%
7,CCCC(=O)N1CCN(c2ccc(NC(=S)NC(=O)CC)cc2)CC1,-3.02%
8,CC(NC(=O)OC(C)(C)C)C(=O)N1CCCC1C(=O)NC(Cc1ccccc1)C(N)=O (stereo not drawn) (Boc-Ala-Pro-Phe-NH2; configuration not given here),-1.92%
9,O=C1NN(c2ccccc2)C(=O)/C1=C/c1coc2ccccc2c1=O,9.91%
10,COc1ccc(CCNC(=O)c2cc(=O)c3cc(C)ccc3o2)cc1,-9.11%
11,O=[N+]([O-])c1ccc(OCc2cccc(COc3ccc([N+](=O)[O-])cc3)n2)cc1,11.7%
12,Clc1ccc(NC2=NCCCCC2)cc1,-3.09%
13,Cc1nc2ccc(NC(=O)N3CCOCC3)cc2nc1C,33.8%
14,Cc1ccc(NC(=O)COc2ccc(C(=O)c3ccccc3)cc2)c(O)c1,10.2%
15,COCc1cc(C)nc(SCC(=O)c2ccc(O)c(O)c2)c1C#N,6.86%
16,Nc1nc2nc(-c3ccc(OCc4ccccc4)cc3)cc(C(F)(F)F)n2n1,4.07%
17,O=C(c1ccc(S(=O)(=O)N2CCOCC2)cc1)N1CCN(c2ccc(F)cc2)CC1,-5.3%
18,COC(=O)c1ccccc1NC(=O)CSc1nc(N)cc(=O)[nH]1,36.6%
19,CCOC(=O)CNC(=O)Cn1cnc2c(nnn2-c2ccc(C)cc2)c1=O,3.96%
20,Cc1ccc(CNC(=O)CSc2nnc3c(n2)[nH]c2ccccc23)cc1,19.6%
21,CCOC(=O)c1cc(-c2ccc(C)cc2)n(CCC(=O)NCCCOC)c1C,-11.5%
22,COc1cc(C(=O)Nc2cc(C)nn2-c2ccccc2)cc(OC)c1OC,7.53%

row,SMILES,"hERG current change (%, negative = inhibition) at 10uM"
1,Cc1ccnc(NC(=O)c2ccc3c(c2)NC(=O)C(C)S3)c1 (stereo not drawn),-1.36%
2,O=C(NCCN1C(=O)S/C(=C\c2cccnc2)C1=O)C1=NN(c2ccccc2)C(=O)CC1,-6.3%
3,CCCc1nc2ccccc2n1CCc1ccccc1,-7.44%
4,C/C(Cn1nnc2ccccc21)=N\OC(=O)c1ccccc1C,-63.9%
5,Cc1ccc(S(=O)(=O)c2c[nH]c3ccc(Cl)cc3c2=O)cc1,9.98%
6,O=C(Nc1ccc2ccccc2c1)[C@@H]1C[C@H]1[C@@H](NP(=O)(c1ccccc1)c1ccccc1)c1ccccc1,32.1%
7,O=C(CSc1cccc2cccnc12)Nc1ccccc1F,-2.94%
8,CSCCC(C(=O)O)N1C(=O)c2ccc(C(=O)O)cc2C1=O (stereo not drawn),14.2%
9,CC(=O)N1CCCc2cc(S(=O)(=O)NCCC3=CCCCC3)ccc21,-15.9%
10,O=C(NCc1ccccc1Br)c1ccc2c(c1)OCCO2,5.54%
11,Cc1ccc(S(=O)(=O)NNC(=O)c2cnn(-c3ccc(Cl)cc3)c2C(F)(F)F)cc1,12.7%
12,Cc1cc2c(NC(=O)CC(C)(C)CC(=O)O)cccc2nn1,6.54%
13,O=C(NCCc1c[nH]c2ccccc12)C(=O)Nc1cc2c3c(c1)CC(=O)N3CCC2,1.46%
14,COc1ccc(CCNC(=O)C(=O)Nc2ccc3nc4n(c(=O)c3c2)CCCCC4)cc1OC,-27.3%
15,O=C1CC(SC(=Nc2ccccc2)Nc2ccccc2)C(=O)N1c1ccc(Cl)c(Cl)c1 (stereo not drawn),9.05%
16,O=C(O)/C=C/C(=O)Nc1ccc(O)cc1,11.7%
17,CCCS(=O)(=O)N1CCC(C(=O)NCCCN2CCCC2=O)CC1,13%
18,CC(=O)NC1C(OCc2ccccc2)OC(CO)C(OC(C)=O)C1OC(C)=O (stereo not drawn),-16.9%
19,CC(NS(=O)(=O)c1ccccc1)C1COc2ccccc2O1 (stereo not drawn),-4.88%
20,Cc1cccc(N=Cc2[nH]c3ccc(Br)c(Cl)c3c2O)c1,20.6%
21,CC(C)O.CN1CCc2c(c3c(n2C)CCN(C)[C@@H]3c2cccnc2)[C@H]1c1cccnc1.Cl,-7.28%
